Results filed as inconclusive are left out. Calls follow the shape of the dose curve; as a rule, active = well fitted curve in the direction sought with a large enough effect; inconclusive = small, poorly fitted or top-dose-only effect, or another doubt; inactive = no such curve, though single readings can be large; an effect the other way counts as inactive or inconclusive. More than one record can exist for a structure, and the calls need not agree. The source holds more than one record for some entries. The list is limited to them. The source may hold further records. Values given together repeat one measurement in other runs, samples, wells, individuals or studies. Records carry a tag for their origin. The letters are not those of the source and start again with each entry.
Potency is read from the fitted curve at half-maximal effect.

Tested on in one assay: not listed separately
Nature of the assay: qHTS of pediatric cancer cell lines to identify multiple opportunities for drug repurposing: Primary screen for LAN-5 cells (AID 1347100). Conditions: LAN-5 neuroblastoma viability, CellTiter-Glo luminescence, 48 h; series mostly up to 46 µM. The gist of the method:
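Cells (500-1,000/well) in growth media were settled 5 h at 37 degrees C, then given compounds for 48 h. Viability was read as CellTiter-Glo luminescence. Primary runs used MIPE at 11 points (0.78 nM-46 µM) and NPC at 8 points (0.59 nM-46 µM); follow-ups used 11 points.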
On the technique in general: Quantitative high-throughput screening tests each substance at several concentrations.
In the case of `Clc1ccc(C(c2ccccc2Cl)C(Cl)Cl)cc1` (centres undefined), the Potency result is “inactive [sample A] and active: 37.2 µM [sample B]”.
For the molecule `CN1C(C(=O)Nc2ccccn2)=C(O)c2ccccc2S1(=O)=O`, the Potency entry is “inactive [sample A] and active: 2.64 µM [sample B]”.
For the molecule `OCCN1CCN(CCCN2c3ccccc3Sc3ccc(C(F)(F)F)cc32)CC1`, the Potency entry is “active: 4.69 µM [sample A] and inactive [sample B]”.
As to `CN1CCC(=C2c3ccccc3C=Cc3ccccc32)CC1`, the Potency entry was “inactive [sample A] and active: 20.9 µM [sample B]”.
As to `COc1cc2c(c(OC)c1OC)-c1ccc(OC)c(=O)cc1[C@@H](NC(C)=O)CC2`, the Potency entry is “active: 59.6 nM [sample A] and inactive [sample B]”.
On the same count and under the same terms, the entry for `CS(=O)(=O)Nc1ccc([N+](=O)[O-])cc1Oc1ccccc1` is “inactive [sample A] and active: 20.9 µM [sample B]”.

In another assay the test system is Zika virus NS2B-NS3 protease. Put plainly: Primary screen GU AMC qHTS for Zika virus inhibitors (AID 1347154). Also: nearly all actives have a fitted effect of over 70% in size. Conditions: Zika NS2B-NS3 unlinked protease, AMC fluorogenic substrate; series mostly up to 54.1 µM. Put shortly:
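Unlinked Zika NS2B hydrophilic domain/NS3 protease domain noncovalent complex (25 nM final) in 10 mM Tris-HCl pH 8.0, 0.01% Tween 20, with AMC peptide substrate. Fluorescence (ex 340, em 450 nm) change over 15 min, room temperature; percent inhibition fitted to 4-parameter Hill equation.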
With `CN(Cc1cnc2nc(N)nc(N)c2n1)c1ccc(C(=O)N[C@@H](CCC(=O)O)C(=O)O)cc1`, the Potency result was “inactive [sample A] and active: 20.3 µM [sample B]”.
As for `COc1cc2nc(N3CCN(C(=O)c4ccco4)CC3)nc(N)c2cc1OC`, the Potency entry was “inactive and active: 26.7 µM, 7 µM, 18.9 µM [separate samples]”.
Take `Cc1cnc(C(=O)NCCc2ccc(S(=O)(=O)NC(=O)NC3CCCCC3)cc2)cn1`: the Potency entry was “inactive [sample A] and active: 24.1 µM [sample B] and inactive [sample C]”.

(Values after PubChem BioAssay (NCATS).)
